Results are given in words; binding and its absence hold for the method and conditions named. In cells and extracts the contact can be indirect. Some binding calls cover weakened binding; strength is not graded here. Sequences can lack the tags named with a protein.

Amino acid sequences for entries named in this document (tags omitted). A change or cut given only in a name is not applied to a line headed by its entry.
UniProt Q9ES74: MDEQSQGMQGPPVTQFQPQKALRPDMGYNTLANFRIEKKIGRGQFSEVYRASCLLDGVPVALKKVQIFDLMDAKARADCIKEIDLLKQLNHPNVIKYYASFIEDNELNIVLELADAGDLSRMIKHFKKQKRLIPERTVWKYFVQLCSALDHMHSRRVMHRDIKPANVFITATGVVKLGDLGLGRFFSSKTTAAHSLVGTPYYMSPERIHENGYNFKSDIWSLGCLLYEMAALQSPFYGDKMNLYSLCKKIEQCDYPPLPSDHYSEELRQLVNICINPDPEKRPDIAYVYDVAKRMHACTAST

Holding throughout (assay): co-IP; HEK293T transiently transfected; mild lysis buffer; anti-HA overnight at 4 °C, magnetic beads; immunoblot
The target of assay [1] is HA-NEK7 (mouse NIMA-related kinase 7, wild type) (mouse) (UniProt Q9ES74).
The target of assay [2] is HA-NEK7 K130A (mouse) (mouse) (UniProt Q9ES74).
Assay [3] addresses HA-NEK7 K140A (mouse) (mouse) (UniProt Q9ES74).
In assay [4] the target is HA-NEK7 L132R (mouse) (mouse) (UniProt Q9ES74).
For assay [5], the target named is HA-Tri-MUT-NEK7 (mouse NEK7 K130A, L132R, K140A) (mouse) (UniProt Q9ES74).
For assay [6], the target named is NEK7 K293R (mouse) (mouse) (UniProt Q9ES74).

B1: FLAG-A20 (mouse A20, encoded by Tnfaip3) (enzyme, UniProt Q60769 1-775)
chain: MAEQLLPQALYLSNMRKAVKIRERTPEDIFKPTNGIIYHFKTMHRYTLEMFRTCQFCPQFREIIHKALIDRSVQASLESQKKLNWCREVRKLVALKTNGDGNCLMHAACQYMWGVQDTDLVLRKALCSTLKETDTRNFKFRWQLESLKSQEFVETGLCYDTRNWNDEWDNLVKMASADTPAARSGLQYNSLEEIHIFVLSNILRRPIIVISDKMLRSLESGSNFAPLKVGGIYLPLHWPAQECYRYPIVLGYDSQHFVPLVTLKDSGPELRAVPLVNRDRGRFEDLKVHFLTDPENEMKEKLLKEYLIVMEIPVQGWDHGTTHLINAAKLDEANLPKEINLVDDYFELVQHEYKKWQENSDQARRAAHAQNPLEPSTPQLSLMDIKCETPNCPFFMSVNTQPLCHECSERRQKNQSKLPKLNSKLGPEGLPGVGLGSSNWSPEETAGGPHSAPPTAPSLFLFSETTAMKCRSPGCPFTLNVQHNGFCERCHARQINASHTADPGKCQACLQDVTRTFNGICSTCFKRTTAEPSSSLTSSIPASCHQRSKSDPSQLIQSLTPHSCHRTGNVSPSGCLSQAARTPGDRAGTSKCRKAGCMYFGTPENKGFCTLCFIEYRENKQSVTASEKAGSPAPRFQNNVPCLGRECGTLGSTMFEGYCQKCFIEAQNQRFHEARRTEEQLRSSQHRDMPRTTQVASRLKCARASCKNILACRSEELCMECQHLSQRVGSVAHRGEPTPEEPPKQRCRAPACDHFGNAKCNGYCNECYQFKQMYG
B1: the binding result is given as “binds” in assay [1]; “binds” in assay [2]; “binds” in assay [3]; “binds” in assay [4]; “no binding” in assay [5]; “binds” in assay [6].

The record behind these values is publication PMC12032302, “A20 attenuates oxidized self-DNA-mediated inflammation in acute kidney injury” (Signal Transduction and Targeted Therapy, 2025).
